Measurements reported in the supplement of paper PMC8728848.
The list shows a part of the results.

What was measured:
Experiment in all cases: glycan array binding signal (z-score within array); higher = stronger binding
Conditions in all cases: glycan notation: IUPAC condensed, linker removed
Gal(a1-3)Gal(b1-4)GlcNAc = target: Gal(a1-3)Gal(b1-4)GlcNAc
Procedure, shortened: (§1)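 Negative Z-scores can be read as non-binding. The Z-score is calculated within each array and then averaged across arrays of one protein sequence at different concentrations or buffers and across linkers. Arrays, 3228 in all, were curated from the Consortium for Functional Glycomics database and kept only where the protein sequence was available.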

[1] = target: Gal(a1-3)Gal(b1-4)GlcNAc(b1-2)Man
Procedure, shortened: as §1

[2] = target: Gal(a1-3)Gal(b1-4)GlcNAc(b1-2)Man(a1-3)[Gal(a1-3)Gal(b1-4)GlcNAc(b1-2)Man(a1-6)]Man(b1-4)GlcNAc(b1-4)GlcNAc
Procedure, shortened: as §1

[3] = target: Gal(a1-3)Gal(b1-4)GlcNAc(b1-3)GalNAc
Procedure, shortened: as §1

[4] = target: Gal(a1-3)Gal(b1-4)GlcNAc(b1-6)GalNAc
Procedure, shortened: as §1

[5] = target: Gal(a1-3)Gal(b1-4)[Fuc(a1-3)]GalNAc
Procedure, shortened: as §1

[6] = target: Gal(a1-3)Gal(b1-4)[Fuc(a1-3)]GlcNAc
Procedure, shortened: as §1

[7] = target: Gal(a1-3)Gal(b1-4)[Fuc(a1-3)]GlcNAc(b1-2)Man(a1-3)[Gal(a1-3)Gal(b1-4)[Fuc(a1-3)]GlcNAc(b1-2)Man(a1-6)]Man(b1-4)GlcNAc(b1-4)GlcNAc
Procedure, shortened: as §1

Gal(a1-3)GalNAc = target: Gal(a1-3)GalNAc
Procedure, shortened: as §1

Gal(a1-3)GlcNAc = target: Gal(a1-3)GlcNAc
Procedure, shortened: as §1

[8] = target: Gal(a1-3)[Gal(a1-4)]Gal(b1-4)GlcNAc
Procedure, shortened: as §1

[9] = target: Gal(a1-4)Gal(b1-3)GlcNAc(b1-2)Man(a1-3)[Gal(a1-4)Gal(b1-3)GlcNAc(b1-2)Man(a1-6)]Man(b1-4)GlcNAc(b1-4)GlcNAc
Procedure, shortened: as §1

Gal(a1-4)Gal(b1-4)Gal = target: Gal(a1-4)Gal(b1-4)Gal
Procedure, shortened: as §1

Gal(a1-4)Gal(b1-4)GalNAc = target: Gal(a1-4)Gal(b1-4)GalNAc
Procedure, shortened: as §1

Gal(a1-4)Gal(b1-4)Glc = target: Gal(a1-4)Gal(b1-4)Glc
Procedure, shortened: as §1

Gal(a1-4)Gal(b1-4)GlcNAc = target: Gal(a1-4)Gal(b1-4)GlcNAc
Procedure, shortened: as §1

[10] = target: Gal(a1-4)Gal(b1-4)GlcNAc(b1-2)Man(a1-3)[Gal(a1-4)Gal(b1-4)GlcNAc(b1-2)Man(a1-6)]Man(b1-4)GlcNAc(b1-4)GlcNAc
Procedure, shortened: as §1

[11] = target: Gal(a1-4)Gal(b1-4)GlcNAc(b1-3)Gal(b1-4)Glc
Procedure, shortened: as §1

Gal(a1-4)GlcNAc = target: Gal(a1-4)GlcNAc
Procedure, shortened: as §1

Gal(a1-6)Glc = target: Gal(a1-6)Glc
Procedure, shortened: as §1

Gal(b1-2)Gal = target: Gal(b1-2)Gal
Procedure, shortened: as §1

Gal(b1-3)Gal = target: Gal(b1-3)Gal
Procedure, shortened: as §1

Gal(b1-3)Gal(b1-4)GlcNAc = target: Gal(b1-3)Gal(b1-4)GlcNAc
Procedure, shortened: as §1

[12] = target: Gal(b1-3)Gal(b1-4)GlcNAc(b1-2)Man(a1-3)[Gal(b1-3)Gal(b1-4)GlcNAc(b1-2)Man(a1-6)]Man(b1-4)GlcNAc(b1-4)GlcNAc
Procedure, shortened: as §1

Gal(b1-3)GalNAc = target: Gal(b1-3)GalNAc
Procedure, shortened: as §1

[13] = target: Gal(b1-3)GalNAc(a1-3)[Fuc(a1-2)]Gal(b1-4)Glc
Procedure, shortened: as §1

[14] = target: Gal(b1-3)GalNAc(a1-3)[Fuc(a1-2)]Gal(b1-4)GlcNAc
Procedure, shortened: as §1

Gal(b1-3)GalNAc(b1-3)Gal = target: Gal(b1-3)GalNAc(b1-3)Gal
Procedure, shortened: as §1

[15] = target: Gal(b1-3)GalNAc(b1-3)Gal(a1-4)Gal(b1-4)Glc
Procedure, shortened: as §1

[16] = target: Gal(b1-3)GalNAc(b1-3)Gal(b1-4)Glc
Procedure, shortened: as §1

[17] = target: Gal(b1-3)GalNAc(b1-3)Gal(b1-4)GlcNAc
Procedure, shortened: as §1

[18] = target: Gal(b1-3)GalNAc(b1-4)Gal(b1-4)Glc
Procedure, shortened: as §1

[19] = target: Gal(b1-3)GalNAc(b1-4)[Neu5Ac(a2-3)]Gal(b1-4)Glc
Procedure, shortened: as §1

Gal(b1-3)GlcNAc = target: Gal(b1-3)GlcNAc
Procedure, shortened: as §1

[20] = target: Gal(b1-3)GlcNAc(a1-3)Gal(b1-4)GlcNAc
Procedure, shortened: as §1

[21] = target: Gal(b1-3)GlcNAc(a1-6)Gal(b1-4)GlcNAc
Procedure, shortened: as §1

Gal(b1-3)GlcNAc(b1-2)Man = target: Gal(b1-3)GlcNAc(b1-2)Man
Procedure, shortened: as §1

[22] = target: Gal(b1-3)GlcNAc(b1-2)Man(a1-3)[Gal(b1-3)GlcNAc(b1-2)Man(a1-6)]Man(b1-4)GlcNAc(b1-4)GlcNAc
Procedure, shortened: as §1

[23] = target: Gal(b1-3)GlcNAc(b1-2)Man(a1-3)[Gal(b1-3)GlcNAc(b1-2)Man(a1-6)]Man(b1-4)GlcNAc(b1-4)[Fuc(a1-6)]GlcNAc
Procedure, shortened: as §1

[24] = target: Gal(b1-3)GlcNAc(b1-2)Man(a1-3)[GlcNAc(b1-4)][Gal(b1-3)GlcNAc(b1-2)Man(a1-6)]Man(b1-4)GlcNAc(b1-4)GlcNAc
Procedure, shortened: as §1

[25] = target: Gal(b1-3)GlcNAc(b1-2)[Gal(b1-3)GlcNAc(b1-6)]Man(a1-6)[Gal(b1-3)GlcNAc(b1-2)Man(a1-3)]Man(b1-4)GlcNAc(b1-4)GlcNAc
Procedure, shortened: as §1

[26] = target: Gal(b1-3)GlcNAc(b1-3)Gal(b1-3)GlcNAc
Procedure, shortened: as §1

[27] = target: Gal(b1-3)GlcNAc(b1-3)Gal(b1-4)Glc
Procedure, shortened: as §1

[28] = target: Gal(b1-3)GlcNAc(b1-3)Gal(b1-4)GlcNAc
Procedure, shortened: as §1

[29] = target: Gal(b1-3)GlcNAc(b1-3)Gal(b1-4)GlcNAc(b1-2)Man(a1-3)[Gal(b1-3)GlcNAc(b1-3)Gal(b1-4)GlcNAc(b1-2)Man(a1-6)]Man(b1-4)GlcNAc(b1-4)GlcNAc
Procedure, shortened: as §1

B1: Nictaba (Nicotiana tabacum), Q94EW1 (protein)
chain: MQGQWIAARDLSITWVDNPQYWTWKTVDPNIEVAELRRVAWLDIYGKIETKNLIRKTSYAVYLVFKLTDNPRELERATASLRFVNEVAEGAGIEGTTVFISKKKKLPGELGRFPHLRSDGWLEIKLGEFFNNLGEDGEVEMRLMEINDKTWKSGIIVKGFDIRPN
Gal(a1-3)Gal(b1-4)GlcNAc
  glycan array binding signal (z-score): -0.166
[1]
  glycan array binding signal (z-score): -0.388
[2]
  glycan array binding signal (z-score): 3.45
[3]
  glycan array binding signal (z-score): -0.272
[4]
  glycan array binding signal (z-score): -0.304
[5]
  glycan array binding signal (z-score): -0.329
[6]
  glycan array binding signal (z-score): -0.305
[7]
  glycan array binding signal (z-score): 2.69
Gal(a1-3)GalNAc
  glycan array binding signal (z-score): -0.277
Gal(a1-3)GlcNAc
  glycan array binding signal (z-score): -0.371
[8]
  glycan array binding signal (z-score): -0.146
[9]
  glycan array binding signal (z-score): 0.812
Gal(a1-4)Gal(b1-4)Gal
  glycan array binding signal (z-score): -0.29
Gal(a1-4)Gal(b1-4)GalNAc
  glycan array binding signal (z-score): -0.123
Gal(a1-4)Gal(b1-4)Glc
  glycan array binding signal (z-score): -0.274
Gal(a1-4)Gal(b1-4)GlcNAc
  glycan array binding signal (z-score): -0.315
[10]
  glycan array binding signal (z-score): 1.69
[11]
  glycan array binding signal (z-score): -0.26
Gal(a1-4)GlcNAc
  glycan array binding signal (z-score): -0.267
Gal(a1-6)Glc
  glycan array binding signal (z-score): -0.27
Gal(b1-2)Gal
  glycan array binding signal (z-score): -0.291
Gal(b1-3)Gal
  glycan array binding signal (z-score): -0.334
Gal(b1-3)Gal(b1-4)GlcNAc
  glycan array binding signal (z-score): -0.321
[12]
  glycan array binding signal (z-score): 2.31
Gal(b1-3)GalNAc
  glycan array binding signal (z-score): -0.309
[13]
  glycan array binding signal (z-score): -0.285
[14]
  glycan array binding signal (z-score): -0.297
Gal(b1-3)GalNAc(b1-3)Gal
  glycan array binding signal (z-score): -0.387
[15]
  glycan array binding signal (z-score): -0.284
[16]
  glycan array binding signal (z-score): -0.329
[17]
  glycan array binding signal (z-score): -0.294
[18]
  glycan array binding signal (z-score): -0.274
[19]
  glycan array binding signal (z-score): -0.302
Gal(b1-3)GlcNAc
  glycan array binding signal (z-score): -0.296
[20]
  glycan array binding signal (z-score): -0.387
[21]
  glycan array binding signal (z-score): -0.278
Gal(b1-3)GlcNAc(b1-2)Man
  glycan array binding signal (z-score): -0.39
[22]
  glycan array binding signal (z-score): 2.83
[23]
  glycan array binding signal (z-score): 1.15
[24]
  glycan array binding signal (z-score): -0.259
[25]
  glycan array binding signal (z-score): 1.39
[26]
  glycan array binding signal (z-score): -0.276
[27]
  glycan array binding signal (z-score): -0.292
[28]
  glycan array binding signal (z-score): -0.287
[29]
  glycan array binding signal (z-score): 2.07
